# According to PubChem BioAssay AID651813 (National Center for Advancing Translational Sciences (NCATS), 2012):
# The campaign covered roughly 2,100 compounds. About 1,100 (52%) were called active. So high a share suggests a set chosen from earlier hits. The shares of active, inactive and inconclusive entries below differ from those in the screen. The call rests on the fitted dose curve; in most records, active means well fitted inhibition curve with a large enough effect; inconclusive means small, poorly fitted or top-dose-only effect; inactive means no such curve, though single readings can be large or run the other way. Potencies of inconclusive entries are left out as doubtful fits.
# Target: DNA dC->dU-editing enzyme APOBEC-3G (Homo sapiens) (UniProt Q9HC16)
# Assay: qHTS for inhibitors of Vif-A3G interactions: Cherry picks counterscreen;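 further: hits raise yellow fluorescence by blocking Vif-driven A3G-eYFP degradation; nearly all actives have a fitted effect of over 70% in size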;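 on max response: max response given as percent of control signal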
# Conditions: HeLa A3G-eYFP + Vif (tagged APOBEC3G with the HIV-1 protein that degrades it), eYFP fluorescence, 24 h
# Procedure, shortened: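 Readout is eYFP fluorescence (488 nm excitation, 500-530 nm emission) measured on Acumen Explorer after 24 h compound exposure, several concentrations, at 37 deg C. Cells: HeLa stably co-expressing Vif and C-terminally eYFP-tagged A3G; MG132 positive control.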
# Potency means the concentration at half of the fitted maximal effect; tags describe the fitted curve by direction and shape.
# Chain of UniProt Q9HC16 (Q9HC16 whole entry, looked up): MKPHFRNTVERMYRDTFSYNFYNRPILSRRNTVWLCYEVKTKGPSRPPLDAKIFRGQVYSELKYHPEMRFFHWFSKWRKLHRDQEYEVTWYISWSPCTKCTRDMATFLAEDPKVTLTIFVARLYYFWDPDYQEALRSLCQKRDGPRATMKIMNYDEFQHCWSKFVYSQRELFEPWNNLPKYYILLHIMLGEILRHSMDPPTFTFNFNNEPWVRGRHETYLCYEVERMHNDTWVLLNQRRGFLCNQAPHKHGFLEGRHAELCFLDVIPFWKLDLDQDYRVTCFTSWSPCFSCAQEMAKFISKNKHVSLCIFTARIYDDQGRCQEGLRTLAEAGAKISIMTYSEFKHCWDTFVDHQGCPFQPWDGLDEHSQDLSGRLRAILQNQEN
SMILES,Potency,max response
COc1ccc(/C=C/C(=O)c2ccc([N+](=O)[O-])o2)cc1,"inconclusive [inhibitor, single point]",–
O=C1OC(/C(=C\Nc2cc(Cl)ccc2O)[N+](=O)[O-])c2ccccc21 (stereo not drawn),–,inactive: 4.09%
COc1ccc2oc(=Nc3ccccc3)c(-c3nc4ccccc4[nH]3)cc2c1,"inconclusive [inhibitor, single point]",–
CCOC(=O)C(C(=O)OCC)C(Nc1cccc(Br)c1)c1ccccc1 (stereo not drawn),"inconclusive [inhibitor, single point]",–
CC1(C)Cc2nc3sc4c(=O)n(CC(=O)NCc5ccccc5)cnc4c3cc2CO1,active: 3.96 µM,–
COc1ccccc1N1CCN(C(=O)c2cc(=O)c3cc(C)ccc3o2)CC1,"inconclusive [inhibitor, partial curve, poor fit]",–
CCOC(=O)c1ccc(NC(=O)Cn2ncc(Cl)c(Cl)c2=O)cc1,"inconclusive [inhibitor, single point]",–
Cc1cc(C)n(-c2nc3c(c(=O)[nH]c(=O)n3C)n2CC(O)COc2ccc(Cl)cc2Cl)n1 (stereo not drawn),"inconclusive [inhibitor, single point]",–
COc1ccc(/C=N/NC(=O)c2ccccc2Cl)cc1CSc1nc2ccccc2s1,active: 3.14 µM,–
CC(C)c1ccc(NC(=O)Nc2cnccn2)cc1,"inconclusive [inhibitor, partial curve]",–
O=[N+]([O-])c1ccc(C2=Nc3cc(Cl)ccc3OC2)cc1,–,inactive: -16.9%
CC(=O)c1cccc(-c2ccnc3c2CC(C(=O)NCc2ccc(F)c(F)c2)O3)c1 (stereo not drawn),active: 2.8 µM,–
C/C(=N\NC(=S)NC(C)C)c1ccc(C(C)(C)C)cc1,"inconclusive [inhibitor, full curve]",–
CS(=O)(=O)N1N=C(c2ccccc2)CC1c1ccc2c(c1)OCO2 (stereo not drawn),active: 12.5 µM,–
CCOc1ccc(CCNC(=O)c2ccc(Cn3c(=O)c4cccn4c4cccnc43)cc2)cc1,–,inactive: -3.64%
O=C(CSc1nc2ccccc2s1)c1cc2ccccc2o1,"inconclusive [inhibitor, partial curve]",–
O=C1c2cccc3c(N4CCCCC4)ccc(c23)C(=O)N1c1ccc(O)cc1,–,inactive: 54.2%
CC1=CC(C)(C)Nc2ccc(OC(=O)CCN3C(=O)c4ccccc4C3=O)cc21,"inconclusive [inhibitor, single point]",–
Cc1ccccc1C1CC(c2cccs2)=NN1S(C)(=O)=O (stereo not drawn),"inconclusive [inhibitor, single point]",–
CC1Cc2cc(S(=O)(=O)CCC(=O)NCc3ccc(Cl)cc3)ccc2N1C(=O)C1CC1 (stereo not drawn),"inconclusive [inhibitor, single point]",–
O=C(N/N=C/c1ccc2c(c1)OCO2)c1cc(-c2ccncc2)nc2ccccc12,active: 5.59 µM,–
Cc1cc2nc(-c3ccc(SCC(=O)Nc4ccc(S(=O)(=O)N5CCCC5)cc4)nc3)[nH]c2cc1C,"inconclusive [inhibitor, single point]",–
CCN1CCc2c(sc(NC(=O)c3ccc(S(=O)(=O)N(CC)c4ccccc4)cc3)c2C(N)=O)C1,active: 5.59 µM,–

SMILES,Potency,max response
CCOc1cc(/C=C2\N=C(SC(C)C(N)=O)N(c3ccc(OC(F)F)cc3)C2=O)ccc1O (stereo not drawn),"inconclusive [inhibitor, partial curve]",–
COc1ccccc1C(=O)Nc1ccc2c(c1)CN(C(=O)CSC)CC2,"inconclusive [inhibitor, partial curve, poor fit]",–
c1ccc(-c2cccc(-c3ccccn3)n2)nc1,–,inactive: -27.5%
COc1ccccc1Nc1c2c(nc3ccc(NC(=O)c4ccc(N(C)C)cc4)cc13)CCCC2,"inconclusive [inhibitor, single point]",–
N#CC1=C(S)N(c2ccc(F)cc2)C2(CCCCC2)NC1=O,–,inactive: 4.28%
CCNC(=S)N/N=C(\C)c1ccc(N2CCOCC2)cc1,–,inactive: -8.21%
COc1ccc(NC(=O)C2Cc3c(-c4ccc(NC(C)=O)cc4)ccnc3O2)cn1 (stereo not drawn),"inconclusive [inhibitor, partial curve]",–
CC(=O)Nc1ccc(S(=O)(=O)Nc2nc3ccccc3nc2Sc2nncn2C)cc1,"inconclusive [inhibitor, partial curve]",–
O=C(NC12CC3CC(CC(C3)C1)C2)c1ccc([N+](=O)[O-])o1,"inconclusive [inhibitor, single point]",–
CC(=O)c1ccc2cccc3c2c1N=CN3C,active: 12.5 µM,–
CCc1ccc(C(=O)/C=C/c2ccc([N+](=O)[O-])o2)cc1,"inconclusive [inhibitor, single point]",–
O=C(COC(=O)c1ccc(NS(=O)(=O)c2cccs2)cc1O)NCc1ccccc1,active: 4.44 µM,–
CCC(=O)NC(=S)Nc1cccc(Cl)c1N1CCCC1,–,inactive: -18%
CCn1c(CNC(=O)C23CC4CC(CC(C4)C2)C3)nnc1SCC(=O)Nc1ccc(OC)cc1,"inconclusive [inhibitor, partial curve, poor fit]",–
O=C1/C(=C/c2ccc([N+](=O)[O-])cc2)Oc2cc(O)ccc21,"inconclusive [inhibitor, full curve]",–
Cc1ccc(-c2nc3ccccc3o2)cc1NC(=S)NC(=O)/C=C/c1ccco1,"inconclusive [inhibitor, partial curve]",–
CCN(CC)c1ccc(NC(=O)CSc2nc(C3CC3)nc3ccccc23)cc1C,"inconclusive [inhibitor, full curve]",–
CCOC(=O)c1c(NC(=O)CSc2nc3ccc(OC)cc3[nH]2)sc2c1CC(C)(C)NC2(C)C,–,inactive: -23%
CCOc1ccc(N/C=C/C(=O)c2cc(OC)c(OC)c(OC)c2)cc1,"inconclusive [inhibitor, single point]",–
COc1ccc(NC(=O)c2ccc(NC(=O)C(C)C)cc2)c([N+](=O)[O-])c1,"inconclusive [inhibitor, partial curve, poor fit]",–
COC(=O)c1sc(NC(=O)c2ccc([N+](=O)[O-])o2)c(C#N)c1C,"inconclusive [inhibitor, single point]",–
O=C(N/N=C/c1ccc([N+](=O)[O-])o1)c1cn2ccc3ccccc3c2n1,–,inactive: 3.73%
Cc1cc(-c2nc(C)c(C(=O)NN)s2)no1,"inconclusive [inhibitor, single point]",–

SMILES,Potency,max response
CCOc1ccc(C(C)=O)cc1COc1cccnc1[N+](=O)[O-],active: 12.5 µM,–
COc1ccc2nc3ccccc3nc2c1NC(=O)c1ccc(Cl)cc1Cl,"inconclusive [inhibitor, single point]",–
S=C(NN=Cc1ccccn1)Nc1ccccn1,–,inactive: 20.1%
O=c1c[n+]([O-])c2ccccc2n1OCc1c(F)cccc1F,active: 19.8 µM,–
COc1ccc(OC)c(Nc2ncnc3c2cnn3-c2cccc(Cl)c2)c1,active: 7.31 µM,–
O=C1CC(c2ccccc2F)c2cc3c(cc2N1)CCC3 (stereo not drawn),active: 2.8 µM,–
Cc1cccc(Nc2nnc(SC/C(O)=C(\C#N)c3nc4ccccc4[nH]3)s2)c1,"inconclusive [inhibitor, single point]",–
N#CC1=C(N)Oc2cc(N)ccc2C1c1ccc(F)cc1F (stereo not drawn),"inconclusive [inhibitor, single point]",–
CCNc1ccc(Br)cc(C(=O)/C=C/c2ccccc2Cl)c1=O,"inconclusive [inhibitor, single point]",–
COc1ccc(/C=C2\CN(Cc3ccccc3)C/C(=C\c3ccc(OC)c(O)c3)C2=O)cc1O,active: 6.27 µM,–
CC(=O)Nc1ccc(S(=O)(=O)N2c3ccccc3C(C)=CC2(C)C)cc1,"inconclusive [inhibitor, full curve]",–
O=c1[nH]c2ccccc2n2c(=S)[nH]nc12,–,inactive: -15.5%
COc1ccccc1-c1cc(NC=O)c2ncc(-c3cccc(C(=O)N(C)C)c3)n2c1,"inconclusive [inhibitor, single point]",–
CCCOc1ccc(C(=O)Nc2cccc(NC(=O)c3ccc(Cl)cc3Cl)c2)cc1,active: 16.4 µM,–
CCc1ccc(C(=O)NC(=S)Nc2ccc(N3CCOCC3)cc2)cc1,–,inactive: 0.165%
N=C1C(c2nc3ccccc3[nH]2)=C(O)CN1c1ccccc1,"inconclusive [inhibitor, single point]",–
O=C(CSc1nc(-c2ccco2)cc(C(F)(F)F)n1)Nc1cccnc1,"inconclusive [inhibitor, single point]",–
N=C1/C(=C\c2coc3ccccc3c2=O)C(=O)N=C2SC(c3ccncc3)=NN12,"inconclusive [inhibitor, single point]",–
CN(CC(=O)Nc1ccc(Cl)c(C(F)(F)F)c1)C(=O)c1ccc(S(=O)(=O)N2CCOCC2)cc1,"inconclusive [inhibitor, full curve]",–
CC(=O)c1cccc(-c2ccnc3c2CC(C(=O)NCC2CC2)O3)c1 (stereo not drawn),"inconclusive [inhibitor, partial curve, poor fit]",–
COc1cc(/C=C2/CC/C(=C/c3ccc(O)c(OC)c3)C2=O)ccc1O,"inconclusive [inhibitor, single point]",–
CCC1CC=CC2C1C(=O)N(Cc1ccccc1)C2c1ccoc1 (stereo not drawn),"inconclusive [inhibitor, single point]",–
